Patent US20230009608A1, “GRK2 INHIBITORS AND USES THEREOF” (Cygnal Therapeutics, Inc., priority 2020, published 2023)
At least one read-out could not be matched to a standard name with certainty.

The compounds below were run on PAXF1657 control empty vector cell line (assay: 7-day proliferation assay, PAXF1657 control empty vector cell line (Example 9)). Settings: Cell Line: PAXF1657 empty vector (EV) cell line.
Assay type: cell-based
Protocol: In order to identify compounds specific for GRK2, we generated two isogenic cell line pairs of the pancreatic cancer cell line PAXF1657, a pair of cells stably overexpressing GRK2 cDNA or the control empty vector and a cell line pair of PAXF1657 GRK2 knockout clonal cells versus non-targeting control clonal cells.
Proliferation Assay: Cellular anti-proliferative activity of compounds was assessed by using the pancreatic cancer cell line, PAXF1657, stably overexpressing GRK2 cDNA or the control empty vector, as well as the parental urinary bladder cancer cell line, 5637. In addition, we also took advantage of GRK2 knockout cell lines that were generated via CRISPR. Cell lines were seeded into tissue culture treated, white-walled, 96-well plates at a density of 500 cells/well in RPMI1640 media supplemented with 10% H.I. FBS and penicillin/streptomycin. Plates were incubated overnight at 37° C., 5% CO2 to allow cells to adhere to the wells. GRK2 inhibitors were added to the cells using a 10-point dilution series with a final concentration ranging from 30 μM-0.0002 μM in 0.3% DMSO. At the time of compound addition, a set of plates, that were not treated with compounds, were collected and cell viability was measured using CellTiter-Glo (Promega). CellTiter-Glo reagent was added to the designed plates and luminescence was measuring using a Biotek Synergy plate reader. The compound treated cells were incubated for 3 days at 37° C., 5% CO2. The media was then aspirated from each well and replaced with fresh media containing GRK2 inhibitors. The compound treated cells were then incubated for an additional 4 days at 37° C., 5% CO2. Cell viability was assessed and at end of the 7-day compound treatment by CellTiterGlo.
For `COc1cccc(F)c1CNC(=O)c1cccc(NCc2nnc(-c3ccncn3)n2C)c1`, the “D: 7-day proliferation assay: % Minimum GeoMean (%)” value (“D: 7-day proliferation assay … (%)” for short) was 55.8%.
`Cn1c(CNc2cccc(C(=O)NCc3c(Cl)cncc3Cl)c2)nnc1-c1ccncn1` was tested, and the “D: 7-day proliferation assay … (%)” value was 33.7%.
With `Cn1c(CNc2cccc(C(=O)NCc3ccncc3C(F)(F)F)c2)nnc1-c1ccncn1` the “D: 7-day proliferation assay … (%)” value was 58.1%.
`Cn1c(CNc2cccc(C(=O)NC(CO)c3ccc(F)cc3F)c2)nnc1-c1ccncn1` (stereo not shown) was tested, and the “D: 7-day proliferation assay … (%)” value was 72.9%.
In the case of `Cn1c(CNc2cccc(C(=O)NC(CCO)c3ccccc3F)c2)nnc1-c1ccncn1` (stereo not shown), the “D: 7-day proliferation assay … (%)” value is reported as 54.4%.
In the case of `Cn1c(CNc2cccc(C(=O)NCc3ccccc3S(C)(=O)=O)c2)nnc1-c1ccncn1`, the “D: 7-day proliferation assay … (%)” value is reported as 62.6%.
For `COc1ccc(CNC(=O)c2cccc(NCc3nnc(-c4ccncn4)n3C)c2)c(OC)n1`, the “D: 7-day proliferation assay … (%)” value was 62.7%.
In the case of `Cn1c(CNc2cccc(C(=O)NC3C(=O)NCc4ccccc43)c2)nnc1-c1ccncn1` (stereo not shown), the “D: 7-day proliferation assay … (%)” value is reported as 73.5%.
In the case of `Cn1c(CNc2cccc(C(=O)NCc3cc(S(C)(=O)=O)ccc3F)c2)nnc1-c1ccncn1`, the “D: 7-day proliferation assay … (%)” value is reported as 56.3%.
`Cc1nccn1-c1ncccc1CNC(=O)c1cccc(NCc2nnc(-c3ccncn3)n2C)c1` was tested, and the “D: 7-day proliferation assay … (%)” value was 72.6%.
For `Cn1c(CNc2cccc(C(=O)NCc3ccccc3N3CCOCC3)c2)nnc1-c1ccncn1`, the “D: 7-day proliferation assay … (%)” value was 65.1%.
In the case of `Cn1c(CNc2cccc(C(=O)NCc3c(F)cccc3NS(C)(=O)=O)c2)nnc1-c1ccncn1`, the “D: 7-day proliferation assay … (%)” value is reported as 59%.
With `CC(C)NS(=O)(=O)c1ccccc1CNC(=O)c1cccc(NCc2nnc(-c3ccncn3)n2C)c1` the “D: 7-day proliferation assay … (%)” value was 57.2%.
In the case of `Cn1c(CNc2cccc(C(=O)NCc3ccccc3S(=O)(=O)NC(C)(C)C)c2)nnc1-c1ccncn1`, the “D: 7-day proliferation assay … (%)” value is reported as 47.4%.
`Cn1c(CNc2cccc(C(=O)NCc3ccncc3Br)c2)nnc1-c1ccncn1` was tested, and the “D: 7-day proliferation assay … (%)” value was 56.3%.
`Cn1c(CNc2cccc(C(=O)NCc3ccccc3CO)c2)nnc1-c1ccncn1` was tested, and the “D: 7-day proliferation assay … (%)” value was 51.9%.
In the case of `Cc1ccnc(CNC(=O)c2cccc(NCc3nnc(-c4ccncn4)n3C)c2)c1F`, the “D: 7-day proliferation assay … (%)” value is reported as 33.4%.
With `COc1ccncc1CNC(=O)c1cccc(NCc2nnc(-c3ccncn3)n2C)c1` the “D: 7-day proliferation assay … (%)” value was 50.5%.
For `CCc1cccnc1CNC(=O)c1cccc(NCc2nnc(-c3ccncn3)n2C)c1`, the “D: 7-day proliferation assay … (%)” value was 13.3%.
In the case of `CN(C)c1ncccc1CNC(=O)c1cccc(NCc2nnc(-c3ccncn3)n2C)c1`, the “D: 7-day proliferation assay … (%)” value is reported as 71.6%.
In the case of `COc1nccc(C)c1CNC(=O)c1cccc(NCc2nnc(-c3ccncn3)n2C)c1`, the “D: 7-day proliferation assay … (%)” value is reported as 52.7%.
For `COc1ccc(CNC(=O)c2cccc(NCc3nnc(-c4ccncn4)n3C)c2)c(C)n1`, the “D: 7-day proliferation assay … (%)” value was 17.2%.
With `COc1ccccc1C(C#N)NC(=O)c1cccc(NCc2nnc(-c3ccncn3)n2C)c1` (stereo not shown) the “D: 7-day proliferation assay … (%)” value was 37.7%.
With `Cn1c(CNc2cccc(C(=O)NC3CS(=O)(=O)c4ccccc43)c2)nnc1-c1ccncn1` (stereo not shown) the “D: 7-day proliferation assay … (%)” value was 56.5%.
With `CN1Cc2ccccc2C(NC(=O)c2cccc(NCc3nnc(-c4ccncn4)n3C)c2)C1` (stereo not shown) the “D: 7-day proliferation assay … (%)” value was 52.8%.
With `Cn1c(CNc2cccc(C(=O)NCc3c(F)ccc4[nH]cnc34)c2)nnc1-c1ccncn1` the “D: 7-day proliferation assay … (%)” value was 55.7%.
With `Cn1c(CNc2cccc(C(=O)NCc3ccccc3-n3ccnc3)c2)nnc1-c1ccncn1` the “D: 7-day proliferation assay … (%)” value was 57.6%.
With `CN(C)S(=O)(=O)c1ccccc1CNC(=O)c1cccc(NCc2nnc(-c3ccncn3)n2C)c1` the “D: 7-day proliferation assay … (%)” value was 40.1%.
In the case of `Cn1c(CNc2cccc(C(=O)NCc3ccccc3Cn3cncn3)c2)nnc1-c1ccncn1`, the “D: 7-day proliferation assay … (%)” value is reported as 74.7%.
`CCC(NC(=O)c1cccc(NCc2nnc(-c3ccncn3)n2C)c1)c1ccccc1OCC(=O)NC` (stereo not shown) was tested, and the “D: 7-day proliferation assay … (%)” value was 53.5%.
With `Cn1c(CNc2cccc(C(=O)NCc3ccncc3-c3cc[nH]n3)c2)nnc1-c1ccncn1` the “D: 7-day proliferation assay … (%)” value was 68.8%.
